Laboratory results: PubChem BioAssay AID1347165 (National Center for Advancing Translational Sciences (NCATS), 2019)
Screen size: about 220,000 compounds; about 5,700 (2.6%) were called active. The inconclusive results got no clear call from the source; some entries with a clear call stand among them for comparison. The call rests on the fitted dose curve; in most records, active means well fitted inhibition curve with a large enough effect; inconclusive means small, poorly fitted or top-dose-only effect; inactive means no such curve, though single readings can be large or run the other way. Potencies beside an inconclusive call are fits to weak or partial responses and may not hold up.

What follows are compounds tested against Lysine-specific demethylase 5B (Homo sapiens) (UniProt Q9UGL1) (assay: Primary screen for KDM5B Histone Demethylases FDH-coupled qHTS). Conditions: FDH-coupled NADH fluorescence (FDH is formaldehyde dehydrogenase); activity change, negative = inhibition: at 57.7 µM (top of the series) unless noted.
Summary of the method: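 KDM5BΔAP (200 nM final) in 50 mM HEPES pH 7.5, 0.01% Tween-20 was preincubated 10 min at RT with compound over a concentration range. Substrate mix (H3K4me3 12.5 µM, α-KG 25 µM, Fe²⁺, ascorbate, NAD⁺, FDH) was added, and NADH fluorescence change over 30 min gave dose-response curves.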
Further: nearly all actives have a fitted effect of over 70% in size.
Potency means the concentration at half of the fitted maximal effect; tags describe the fitted curve by direction and shape.
Wherever activity change, negative = inhibition is given: 0% is about no effect.

Sequence of UniProt Q9UGL1 (Q9UGL1 whole entry, looked up): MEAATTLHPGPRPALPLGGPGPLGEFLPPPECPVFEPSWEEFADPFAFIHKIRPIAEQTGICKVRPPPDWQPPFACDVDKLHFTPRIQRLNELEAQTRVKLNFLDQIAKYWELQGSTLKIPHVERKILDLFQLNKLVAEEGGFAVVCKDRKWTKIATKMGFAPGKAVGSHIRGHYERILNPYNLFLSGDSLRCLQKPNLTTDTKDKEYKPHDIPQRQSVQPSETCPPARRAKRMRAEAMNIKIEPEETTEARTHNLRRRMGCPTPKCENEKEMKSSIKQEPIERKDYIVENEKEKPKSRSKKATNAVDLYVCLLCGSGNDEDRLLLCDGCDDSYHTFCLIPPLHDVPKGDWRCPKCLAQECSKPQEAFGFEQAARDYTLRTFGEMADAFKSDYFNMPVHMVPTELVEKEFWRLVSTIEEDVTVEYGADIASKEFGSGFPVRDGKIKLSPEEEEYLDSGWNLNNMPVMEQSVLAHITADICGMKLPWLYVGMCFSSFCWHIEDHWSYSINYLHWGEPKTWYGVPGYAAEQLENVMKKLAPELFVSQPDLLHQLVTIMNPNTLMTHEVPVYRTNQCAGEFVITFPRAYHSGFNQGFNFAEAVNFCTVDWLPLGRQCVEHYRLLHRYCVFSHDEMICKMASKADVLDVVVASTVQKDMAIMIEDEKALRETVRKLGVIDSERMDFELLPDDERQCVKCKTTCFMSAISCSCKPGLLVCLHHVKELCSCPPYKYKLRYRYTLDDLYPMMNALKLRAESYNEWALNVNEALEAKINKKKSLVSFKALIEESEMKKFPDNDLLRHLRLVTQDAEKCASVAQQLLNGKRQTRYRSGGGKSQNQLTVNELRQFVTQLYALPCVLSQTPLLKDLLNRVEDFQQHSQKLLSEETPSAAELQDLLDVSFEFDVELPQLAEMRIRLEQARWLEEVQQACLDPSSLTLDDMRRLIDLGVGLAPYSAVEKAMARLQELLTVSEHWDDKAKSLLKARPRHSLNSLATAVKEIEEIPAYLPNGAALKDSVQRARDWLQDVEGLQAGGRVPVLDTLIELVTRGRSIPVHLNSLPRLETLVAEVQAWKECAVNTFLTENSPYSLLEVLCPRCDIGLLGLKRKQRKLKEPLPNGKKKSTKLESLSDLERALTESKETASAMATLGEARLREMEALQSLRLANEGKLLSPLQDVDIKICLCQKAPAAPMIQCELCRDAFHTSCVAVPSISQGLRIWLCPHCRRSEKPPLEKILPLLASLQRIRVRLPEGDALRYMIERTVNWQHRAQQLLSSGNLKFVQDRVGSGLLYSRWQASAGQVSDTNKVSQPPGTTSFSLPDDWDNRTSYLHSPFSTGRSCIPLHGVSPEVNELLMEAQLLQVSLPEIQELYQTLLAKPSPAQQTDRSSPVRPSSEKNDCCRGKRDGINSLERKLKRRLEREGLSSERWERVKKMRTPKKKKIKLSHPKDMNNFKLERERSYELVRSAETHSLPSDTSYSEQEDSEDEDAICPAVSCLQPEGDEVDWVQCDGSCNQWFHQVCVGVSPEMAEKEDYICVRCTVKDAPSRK

| SMILES | Potency | activity change, negative = inhibition |
| --- | --- | --- |
| COc1ccc(CN2CCN(S(=O)(=O)c3ccc(NC(C)=O)cc3)CC2)c(OC)c1OC | inconclusive: 15.8 µM [inhibitor, partial curve, poor fit] | – |
| Cc1cc(=O)oc2cc(OC(C)C(=O)Nc3ccc(S(=O)(=O)NC(C)C)cc3)ccc12 (configuration not stated) | inconclusive: 31.6 µM [inhibitor, partial curve, poor fit] | – |
| CCN(Cc1ccccc1)C(=O)CNC(=O)Cc1c[nH]c2ccccc12 | – | inactive: 8.28% |
| C=CCOc1ccc(NC(=O)C(C)Oc2ccccc2)cc1 (configuration not stated) | inconclusive: 39.8 µM [inhibitor, single point] | – |
| NC(=S)NNC(=O)c1ccccc1C(=O)O | – | inactive: -16.9% |
| Cc1nccnc1CN1CCC2(CC1)CCN(Cc1ncc[nH]1)CC2CO (configuration not stated) | inconclusive: 22.4 µM [inhibitor, partial curve, poor fit] | – |
| Cc1ccc(-c2cc(C(=O)Nc3nnc(C4CC4)s3)c3ccccc3n2)o1 | inconclusive: 20 µM [inhibitor, partial curve, poor fit] | – |
| O=C(O)c1cc2ccccc2c2cccnc12 | inconclusive: 22.4 µM [inhibitor, partial curve, poor fit] | – |
| CC(C)NC(=O)N(C1CC1)C1CCOC2(CCN(C(=O)NC3CCCCC3)CC2)C1 (configuration not stated) | – | inactive: 192% |
| O=C1Nc2ccc(-c3ccccc3)cc2C(=O)N2C[C@H](O)C[C@@H]12 | inconclusive: 31.6 µM [inhibitor, partial curve, poor fit] | – |
| CCc1ccc(NC(=O)Cn2c(=O)n(CCc3ccccc3)c(=O)c3sc4ccccc4c32)cc1 | inconclusive: 1.41 µM [inhibitor, full curve, poor fit] | – |
| Cc1ccc(-n2cnc3c(sc4nc(N5CCOCC5)c5c(c43)CCCC5)c2=O)cc1 | inconclusive: 35.5 µM [inhibitor, partial curve, poor fit] | – |
| FC(F)(F)c1ccc(CN2CCn3c(nnc3C3CCNCC3)C2)cc1 | inconclusive: 50.1 µM [inhibitor, partial curve] | – |
| CCCn1cc(-c2ccncc2)cc1C(=O)N1CCCCC1 | inconclusive: 22.4 µM [inhibitor, single point] | – |
| Cc1cc(N2CCC(C)CC2)nc2ccc(NC(=O)CCC(=O)N3CCN(c4ccccc4F)CC3)cc12 | inconclusive: 31.6 µM [inhibitor, partial curve, poor fit] | – |
| COCCCNC(=O)C1(CCO)CCN(c2ncccn2)C1 (configuration not stated) | inconclusive: 31.6 µM [inhibitor, partial curve, poor fit] | – |
| Cc1cccc(Cn2c(N3CCc4ccccc4C3)nc3c2c(=O)n(C)c(=O)n3C)c1 | – | inactive: 15.8% |
| CC1=C(C(=O)OC(C)C)C(c2ccccc2F)N2C(CC(=O)N3CCOCC3)=CSC2=N1 (configuration not stated) | inconclusive: 15.8 µM [inhibitor, partial curve] | – |
| NC(=S)c1ccc(S(N)(=O)=O)cc1 | – | inactive: -19.1% |
| O=C(Nc1ccc2c(c1)CCC2)c1ccc2ccccc2c1 | inconclusive: 28.2 µM [inhibitor, single point] | – |
| Cc1ccc(NC(=O)CN(c2cc(C(F)(F)F)ccc2Cl)S(C)(=O)=O)cc1C | – | inactive: -22.4% |
| CC/C=C(/C)C(=O)N(C)Cc1ccsc1 | – | inactive: 13% |
| Cc1noc2c(-c3cccnc3NCCN3CCOCC3)cc(-c3ccccc3)nc12 | active: 35.5 µM | – |

| SMILES | Potency | activity change, negative = inhibition |
| --- | --- | --- |
| Cc1ncsc1CN1CCC2(CC1)CN(Cc1ccccc1)CC2CO (configuration not stated) | inconclusive: 25.1 µM [inhibitor, single point] | – |
| CN1CC(=O)N(c2ccc(Cl)cc2)Cc2c(NC3CCNCC3)ncnc21 | inconclusive: 56.2 µM [inhibitor, partial curve] | – |
| COc1ccc(NC(C)(C)C(=O)N2CCC3(CCN(C)CC3)C2)cc1 | inconclusive: 14.1 µM [inhibitor, partial curve, poor fit] | – |
| CC(Oc1ccc2ccc(=O)oc2c1)C(=O)Nc1ccc(F)cc1 (configuration not stated) | inconclusive: 25.1 µM [inhibitor, partial curve, poor fit] | – |
| COc1ccc(/C=C/C(=O)c2cc3cccc(OC)c3oc2=O)cc1 | inconclusive: 20 µM [inhibitor, partial curve, poor fit] | – |
| COc1ccccc1OC(C)C(=O)c1ccc(C)cc1 (configuration not stated) | – | inactive: 11.2% |
| O=C(NCC1CC1)c1cc(Br)cn2ccnc12 | inconclusive: 5.01 µM [inhibitor, full curve, poor fit] | – |
| COc1ccccc1-c1cnc2n[nH]c(-c3ccccc3C)c2n1 | active: 7.08 µM | – |
| O=C(NC1CCCCCC1)c1ccc(CS(=O)c2cccc(Cl)c2)o1 (configuration not stated) | – | inactive: -29.7% |
| O=C(NCc1ccccc1Cl)c1ccc2c(c1)N(Cc1ccccc1)CCS2 | inconclusive: 15.8 µM [inhibitor, partial curve, poor fit] | – |
| O=C(NC[C@H]1O[C@H](Cc2cc(-c3ccc(F)cc3)on2)CC[C@@H]1O)c1ccncc1 | – | inactive: -27.7% [at 86.2 µM] |
| Cc1ccc(CCNC(=O)c2ccc3c(c2)N(Cc2ccc(F)cc2)CCS3)cc1 | inconclusive: 31.6 µM [inhibitor, partial curve, poor fit] | – |
| Cc1noc(C)c1-c1cc2cc(CO)oc2c(-c2ccccc2)n1 | inconclusive: 28.2 µM [inhibitor, single point] | – |
| Nc1nc(CN2CCN(C(=O)c3ccc(Cl)c(Cl)c3)CC2)nc2ccccc12 | – | inactive: -2.72% |
| O=C(CN1CC2CC(C1)[C@H]1CCCC(=O)N1C2)NCCCN1CCCCC1 (some centres not stated) | – | inactive: -14.7% |
| Cc1ccccc1-c1nnn(CCC(=O)Nc2sc3c(c2C#N)CCCC3)n1 | – | inactive: -3.35% |
| O=C(Sc1ccc(Cl)cc1)c1ccccn1 | inconclusive: 15.8 µM [inhibitor, partial curve, poor fit] | – |
| CCOc1ccc(-n2c(SCC(=O)N3CCCc4ccccc43)nc3c(c2=O)SCC3)cc1 | – | inactive: 17.1% |
| Cc1cccc(CN(C(=O)c2ccco2)c2ccc(CC(=O)N(C)Cc3ccccc3)cc2)c1 | active: 28.2 µM | – |
| Cn1c(=O)[nH]c2c(Cl)nccc21 | inconclusive: 35.5 µM [inhibitor, partial curve, poor fit] | – |
| COc1cc(CNCc2ccccc2C)ccc1OCC(O)CN1CCOCC1 (configuration not stated) | inconclusive: 31.6 µM [inhibitor, partial curve, poor fit] | – |
| O=C(Nc1ccc(Br)cc1)c1cc(S(=O)(=O)Nc2ccccn2)ccc1Cl | inconclusive: 31.6 µM [inhibitor, single point] | – |
| CCCCN1CCN(C(=O)c2cc(-c3ccncc3)nc3ccccc23)CC1 | – | inactive: 11.8% |

| SMILES | Potency | activity change, negative = inhibition |
| --- | --- | --- |
| CC1CCCCC12NC(=S)N(c1ccccc1)N2 (configuration not stated) | inconclusive: 39.8 µM [inhibitor, partial curve, poor fit] | – |
| O=C(NC1CC1)c1cc(C2CC2)nc2onc(C3CCCNC3)c12 (configuration not stated) | inconclusive: 89.1 µM [inhibitor, partial curve] | – |
| CC1CCCN(S(=O)(=O)NCc2ccnc(N3CCN(c4ccc(F)cc4)CC3)c2)C1 (configuration not stated) | – | inactive: 10.3% |
| O=C(Cn1ncc2ccccc2c1=O)Nc1ccc(F)c(F)c1 | – | inactive: -13.5% |
| O=C(Nc1ccccc1F)N1CCCCCC1CN1CCCC1 (configuration not stated) | – | inactive: 1.57% |
| O=c1c(N2CCN(c3cccc(Cl)c3)CC2)csc2ccc(Cl)cc12 | inconclusive: 31.6 µM [inhibitor, partial curve, poor fit] | – |
| COc1cccc(-n2c(C)c(C)c3c2ncn2nc(-c4cccs4)nc32)c1 | inconclusive: 1.78 µM [inhibitor, partial curve, poor fit] | – |
| O=c1c2sccc2n(Cc2cc(=O)n3cc(Cl)ccc3n2)c(=O)n1-c1ccccc1 | inconclusive: 17.8 µM [inhibitor, partial curve, poor fit] | – |
| C=CCN(C)C(=O)[C@@H](C)C1CC[C@@]2(C)Cc3sc(NC(=O)C4CC4)nc3[C@@H](C)[C@@H]2[C@H]1O (some centres not stated) | inconclusive: 17.8 µM [inhibitor, partial curve] | – |
| CCOC(=O)C1CCCN(c2nc3c(C)cccn3c(=O)c2/C=C(\C#N)C(=O)NCc2ccco2)C1 (configuration not stated) | inconclusive: 28.2 µM [inhibitor, partial curve, poor fit] | – |
| Cc1ccc(C(=O)OC(C)CN2CCN(C)CC2)cc1 (configuration not stated) | inconclusive: 35.5 µM [inhibitor, single point] | – |
| COC(=O)[C@@H]1Cc2ncn(C)c2CN1C(=O)c1ccc(C#N)cc1 | inconclusive: 22.4 µM [inhibitor, single point] | – |
| COc1ccc(NC(=O)N2CCc3c(C(=O)Nc4ccc5c(c4)OCO5)cccc32)cc1 | active: 22.4 µM | – |
| OC12CC3CC(C1)CC(NCc1ccco1)(C3)C2 | – | inactive: -9.9% |
| COc1ccc(-c2cn3nc(SCC(=O)Nc4cc(C)cc(C)c4)ccc3n2)cc1 | inconclusive: 17.8 µM [inhibitor, partial curve, poor fit] | – |
| O=C(CCc1cccs1)N(CC1CCOC1)C1CC1 (configuration not stated) | – | inactive: 16.4% |
| Cc1oc(-c2cccs2)nc1CC(=O)N(Cc1ccc(C(F)(F)F)cc1)C1CC1 | inconclusive: 25.1 µM [inhibitor, partial curve, poor fit] | – |
| O=c1c2nc(OCc3ccc4c(c3)OCO4)ccc2ncn1-c1ccccc1 | inconclusive: 50.1 µM [inhibitor, single point] | – |
| O=C(O)c1ccc(-c2ccccc2)s1 | inconclusive: 25.1 µM [inhibitor, partial curve, poor fit] | – |
| CCOc1cccc(CNC(=O)c2cc3c(=O)[nH]c(C)cn3n2)c1 | inconclusive: 39.8 µM [inhibitor, single point] | – |
| Cc1cccc(NC(=O)N2CC=C(c3c[nH]c4ccccc34)CC2)c1C | inconclusive: 12.6 µM [inhibitor, partial curve, poor fit] | – |
